From a collection of fitness landscapes (doi:10.1126/science.1257360)
The other results are listed elsewhere or left out.

B1: PhoQ; a variant is named by its letters at X, in order, P23837 (parent)
chain: MKKLLRLFFPLSLRVRFLLATAAVVLVLSLAYGMVALIGYSVSFDKTTFRLLRGESNLFYTLAKWENNKLHVELPENIDKQSPTMTLIYDENGQLLWAQRDVPWLMKMIQPDWLKSNGFHEIEADVNDTSLLLSGDHSIQQQLQEVREDDDDAEMTHSVAVNVYPATSRMPKLTIVVVDTIPVELKSSYMVWSWFIYVLSANLLLVIPLLWVAAWWSLRPIEALAKEVRELEEHNRELLNPATTRELTSLVRNLNRLLKSERERYDKYRTTLTDLTHSLKTPLXXLQXXLRSLRSEKMSVSDAEPVMLEQISRISQQIGYYLHRASMRGGTLLSRELHPVAPLLDNLTSALNKVYQRKGVNISLDISPEISFVGEQNDFVEVMGNVLDNACKYCLEFVEISARQTDEHLYIVVEDDGPGIPLSKREVIFDRGQRVDTLRPGQGVGLAVAREITEQYEGKIVAGESMLGGARMEVIFGRQHSAPKDE

Variants of: B1
Experiment: enrichment ratio after two sorts for PhoP signalling (ratio (wild type AVST 3.29)); higher = more functional
Settings: with PhoP (E. coli)

Row | Variant | enrichment ratio
1 | WMCA | ≤ 0.25
2 | RWGL | ≤ 0.25
3 | YYSQ | ≤ 0.25
4 | TYYL | ≤ 0.25
5 | TWST | ≤ 0.25
6 | TVPH | ≤ 0.25
7 | WALW | ≤ 0.25
8 | DKAN | ≤ 0.25
9 | RRQI | ≤ 0.25
10 | LHNY | ≤ 0.25
11 | PQKI | ≤ 0.25
12 | TENH | 9.29
13 | YIMS | ≤ 0.25
14 | SDML | 6.69
15 | EAIH | ≤ 0.25
16 | MSNG | ≤ 0.25
17 | YYFC | ≤ 0.25
18 | FTRQ | ≤ 0.25
19 | QDCE | ≤ 0.25
20 | PGVP | ≤ 0.25
21 | ITAL | 0.733
22 | RLWW | ≤ 0.25
23 | GQNF | ≤ 0.25
24 | EHWY | ≤ 0.25
25 | LVFV | ≤ 0.25

Row | Variant | enrichment ratio
26 | WWLV | ≤ 0.25
27 | HQVD | ≤ 0.25
28 | ARQM | ≤ 0.25
29 | HFDM | ≤ 0.25
30 | HFAE | ≤ 0.25
31 | WLFT | ≤ 0.25
32 | TFGS | 1.72
33 | MFKY | ≤ 0.25
34 | IPLL | ≤ 0.25
35 | NGYN | ≤ 0.25
36 | TDNA | ≤ 0.25
37 | LQYY | ≤ 0.25
38 | FKTH | ≤ 0.25
39 | EFRG | ≤ 0.25
40 | KCYF | ≤ 0.25
41 | QERM | ≤ 0.25
42 | MVPM | ≤ 0.25
43 | YYVE | ≤ 0.25
44 | EFLV | ≤ 0.25
45 | NAHE | ≤ 0.25
46 | ATPN | ≤ 0.25
47 | FWDE | ≤ 0.25
48 | GYGP | ≤ 0.25
49 | SHLF | 8.04
50 | PRVT | ≤ 0.25

Row | Variant | enrichment ratio
51 | AMRI | ≤ 0.25
52 | DSTW | ≤ 0.25
53 | QESA | ≤ 0.25
54 | HHGC | ≤ 0.25
55 | VFMG | ≤ 0.25
56 | IARK | ≤ 0.25
57 | YDPR | ≤ 0.25
58 | VSDF | ≤ 0.25
59 | FYDG | ≤ 0.25
60 | SGMI | 25
61 | DNCH | ≤ 0.25
62 | SEHK | ≤ 0.25
63 | LFGA | ≤ 0.25
64 | MGPD | ≤ 0.25
65 | NVAW | ≤ 0.25
66 | MLIT | ≤ 0.25
67 | ASWP | ≤ 0.25
68 | DGNR | ≤ 0.25
69 | WSRG | ≤ 0.25
70 | KESA | ≤ 0.25
71 | EQRL | ≤ 0.25
72 | NTYI | ≤ 0.25
73 | YMSY | ≤ 0.25
74 | GTNK | ≤ 0.25
75 | IFNH | ≤ 0.25

Row | Variant | enrichment ratio
76 | SSAD | ≤ 0.25
77 | TKAE | ≤ 0.25
78 | PVHE | ≤ 0.25
79 | TVHY | 0.821
80 | ANCI | 19.9
81 | KDNT | ≤ 0.25
82 | EVYI | ≤ 0.25
83 | MQGR | ≤ 0.25
84 | TATF | 8.91
85 | MIPG | ≤ 0.25
86 | DARS | ≤ 0.25
87 | RSSC | ≤ 0.25
88 | RYNA | ≤ 0.25
89 | TQFA | ≤ 0.25
90 | LMTE | ≤ 0.25
91 | FMMR | ≤ 0.25
92 | RYET | ≤ 0.25
93 | GVRL | ≤ 0.25
94 | TRVL | 11.6
95 | TDQG | 1.47
96 | YIPV | 0.333
97 | RVKY | ≤ 0.25
98 | RRTQ | ≤ 0.25
99 | LWHV | ≤ 0.25
100 | LDAC | ≤ 0.25

Row | Variant | enrichment ratio
101 | RHDC | ≤ 0.25
102 | MKVF | ≤ 0.25
103 | DVMG | ≤ 0.25
104 | EIKF | ≤ 0.25
105 | GGCQ | 13.2
106 | SDTT | ≤ 0.25
107 | IGKE | ≤ 0.25
108 | KHNY | ≤ 0.25
109 | RCYE | ≤ 0.25
110 | SREQ | ≤ 0.25
111 | YYKD | ≤ 0.25
112 | DHDL | ≤ 0.25
113 | DMLM | ≤ 0.25
114 | RDGW | ≤ 0.25
115 | HETI | 0.579
116 | NQCV | ≤ 0.25
117 | HFAV | ≤ 0.25
118 | RMWI | ≤ 0.25
119 | SAEY | ≤ 0.25
120 | ITYM | ≤ 0.25
121 | HDHP | ≤ 0.25
122 | FEEC | ≤ 0.25
123 | IEKH | ≤ 0.25
124 | QNFS | ≤ 0.25
125 | FQHM | ≤ 0.25

Row | Variant | enrichment ratio
126 | HPNK | ≤ 0.25
127 | WASW | ≤ 0.25
128 | PRPL | ≤ 0.25
129 | TRWW | ≤ 0.25
130 | SDFK | ≤ 0.25
131 | LWPA | ≤ 0.25
132 | DIQV | ≤ 0.25
133 | EINI | ≤ 0.25
134 | RSRE | ≤ 0.25
135 | HSCH | ≤ 0.25
136 | QDMV | 7.48
137 | TKGS | 1.16
138 | TDIM | 10.7
139 | CPHV | ≤ 0.25
140 | HWPQ | ≤ 0.25
141 | ENQH | ≤ 0.25
142 | GDGD | ≤ 0.25
143 | FPPF | ≤ 0.25
144 | LFIE | ≤ 0.25
145 | NHGT | ≤ 0.25
146 | PYYG | ≤ 0.25
147 | DFMD | ≤ 0.25
148 | WASN | ≤ 0.25
149 | ETFM | ≤ 0.25
150 | QAKA | ≤ 0.25

Row | Variant | enrichment ratio
151 | LVNP | ≤ 0.25
152 | RDAF | ≤ 0.25
153 | VQFP | ≤ 0.25
154 | GIPN | ≤ 0.25
155 | GKTE | ≤ 0.25
156 | AFLC | 4.94
157 | RWAV | ≤ 0.25
158 | AAIS | 2.64
159 | FVVM | ≤ 0.25
160 | IMTY | ≤ 0.25
161 | PAGC | ≤ 0.25
162 | LTNP | ≤ 0.25
163 | QCIQ | ≤ 0.25
164 | WVFM | ≤ 0.25
165 | PMGD | ≤ 0.25
166 | NPIA | ≤ 0.25
167 | AKVN | ≤ 0.25
168 | WAQK | ≤ 0.25
169 | IADD | ≤ 0.25
170 | HHTA | ≤ 0.25
171 | LDWS | ≤ 0.25
172 | NRSS | ≤ 0.25
173 | LTYI | ≤ 0.25
174 | YWMS | ≤ 0.25
175 | DEGA | ≤ 0.25

Row | Variant | enrichment ratio
176 | WRVL | ≤ 0.25
177 | YWVG | ≤ 0.25
178 | SMGS | 1.09
179 | ALSM | 17
180 | WHHM | ≤ 0.25
181 | SPRM | ≤ 0.25
182 | MMEY | ≤ 0.25
183 | EPSC | ≤ 0.25
184 | MLKT | ≤ 0.25
185 | QAVI | ≤ 0.25
186 | QYRC | ≤ 0.25
187 | KNIM | ≤ 0.25
188 | IHTF | ≤ 0.25
189 | PVRV | ≤ 0.25
190 | FIVP | ≤ 0.25
191 | YFYT | ≤ 0.25
192 | DEDS | ≤ 0.25
193 | QGCW | ≤ 0.25
194 | IQYV | ≤ 0.25
195 | SGCY | 10.6
